Here are results for 85 compounds from ChEMBL document CHEMBL4888484, “Replenishing the malaria drug discovery pipeline: Screening and hit evaluation of the MMV Hit Generation Library 1 (HGL1) against asexual blood stage Plasmodium falciparum ,using a nano luciferase reporter read-out” (2022).

The whole screen tested about 150,000 compounds, of which about 540 (0.36%) showed an effect of 50% or more. Some of the results follow.

The subject of the experiment is Plasmodium falciparum. As to the kind of experiment: Primary screen in NF54 nanoGlo assay, in single point, at 2uM, 72h; a lower Z score goes with more inhibition. It is filed as functional, Erythrocyte. The settings on record: timepoint 72 hour.
For `Cn1nccc1C(=O)N1CCC(N2C[C@H](Oc3ccccc3)[C@@H]2c2ccncc2)CC1`, the “% Inhibition” value is listed as -14% and the Z score is recorded as 1.75.
In the same order, the values of `CC(C)Cc1ccc(CCC(=O)N2CCc3nc[nH]c(=O)c3C2)cc1` are -6% and 0.78.
For the compound `C=C(C)CN(CC)C(=O)CC[C@H]1CCCO1`, the “% Inhibition” value is given as 5% and the Z score was -0.58.
Regarding `CC1CN(c2ccc(NC(=O)NCc3ccncc3)cc2)CC(C)O1` (stereo not given), the “% Inhibition” value is -2% and the Z score amounted to 0.24.
On to `C=CCC[C@@H](CN1CCOCC1)Oc1ncc(Cl)cn1`, for which the “% Inhibition” value is given as 0% and the Z score is listed as 0.09.
With `Cc1ccc2oc(N3CCNC(=O)[C@@H]3C(C)C)nc2c1`, the “% Inhibition” value came to 13% and the Z score is on record as -2.05.
For the compound `Cc1cc(C)c2c(C(=O)N3CCCC[C@@H]3CCN)cc(C3CC3)nc2c1`, the “% Inhibition” value is on record as -14% and the Z score is on record as 1.57.
On the same counts, the results for `Cc1cc(C(=O)N(CCN2CCOCC2)Cc2ccco2)cc(=O)[nH]1` are -4% and 0.46.
Take `CCOC1CC(N(C)C(=O)c2cnc[nH]2)C1(CC)CC` (stereo not given): the “% Inhibition” value was 0% and the Z score came out at 0.01.
For `Cc1ccc(NC(=O)Nc2cc(C)c3nc(NS(=O)(=O)c4ccccc4)sc3c2)cc1`, the “% Inhibition” value is given as 35% and the Z score was -3.95.
In the same order, the values of `O=C(NCc1ccccn1)C1CN(C(=O)c2c[nH]c3ccccc23)C1` are -12% and 1.35.
Take `N#CC1CN(C(=O)NC2CCC3CCCCC3C2)CCO1` (stereo not given): the “% Inhibition” value is reported as -5% and the Z score was determined as 0.94.
Consider `Cc1ccc(CCNC(=O)[C@H](C)n2nc(C)c3c(C)n(-c4ccc(C)cc4)nc3c2=O)cc1`, for which the “% Inhibition” value stood at 19% and the Z score is -2.17.
Consider `O=C(CCc1nc2ccccc2[nH]1)N1CCN(c2ccccn2)CC1`, for which the “% Inhibition” value worked out at 31% and the Z score is -0.27.
For `c1ccc(-n2ncc3c(N4CC[C@H](c5ccccn5)C4)ncnc32)cc1`, the “% Inhibition” value is reported as -4% and the Z score was 0.75.
In the same order, the values of `CO[C@H]1CN(c2cc(C(C)C)nc(C)n2)CC[C@H]1N` are -12% and 2.11.
For `Cc1cc(C(=O)N2CCC[C@@H](NC(=O)c3ccn(C(C)C)n3)C2)on1`, the “% Inhibition” value is on record as -2% and the Z score was 0.31.
On to `CN(C)c1nc(N2CCN(c3ccc(F)cc3)CC2)nc2c1CN(C(=O)Cc1ccccc1)CC2`, for which the “% Inhibition” value is reported as -6% and the Z score is given as 1.15.
Consider `Cc1noc2nc(C3CC3)cc(C(=O)N3CCc4n[nH]cc4C3)c12`, for which the “% Inhibition” value is given as -5% and the Z score is on record as 0.91.
For the compound `Cc1noc(C)c1C(=O)N[C@@H](C)COc1ccc(F)cc1F`, the “% Inhibition” value is reported as -12% and the Z score amounted to 1.05.
For the compound `CCc1nc(CN2CC(Oc3cccc(Cl)c3)C2)no1`, the “% Inhibition” value is recorded as -8% and the Z score came out at 1.18.
On the same counts, the results for `O=C(c1n[nH]c2ccccc12)N1CCCN(S(=O)(=O)N2CCCC2)CC1` are -8% and 1.72.
For the compound `Cn1cc(C(=O)NC[C@]2(O)CCCc3occc32)nn1`, the “% Inhibition” value is -12% and the Z score is reported as 1.77.
`O=C(CN1CCOCC1)Nc1nc(CN2CCCCCC2)cs1`: the “% Inhibition” value is -4% and the Z score stood at 0.54.
Regarding `CC(C)N(Cc1ccc(C#N)cc1)C(=O)COC[C@H]1CCCO1`, the “% Inhibition” value is on record as -5% and the Z score is listed as 0.63.
`O=C(NC1CCCC1)N1CCN(c2nc3cccnc3n(Cc3ccccc3)c2=O)CC1`: the “% Inhibition” value stood at 34% and the Z score is recorded as -0.75.
On the same counts, the results for `O=C(CCCc1ccccc1)N1C2CCCC1CN(Cc1ccccc1)C2` are -12% and 2.32.
Regarding `Cc1ccc(-c2n[nH]c3c2cnc2ccc(C)cc23)cc1`, the “% Inhibition” value is -5% and the Z score was 0.82.
As for `CCN1CC[C@H](CN(CC)S(=O)(=O)c2cc(C)sc2C)C1`, the “% Inhibition” value is -10% and the Z score stood at 1.95.
For the compound `CCc1sc(N(C(=O)Cc2ccccc2)c2ccc(C)cc2C)nc1-c1ccc(Cl)cc1`, the “% Inhibition” value is 37% and the Z score is -1.16.
In the same order, the values of `O=C(Cn1cnc2c(cnn2-c2ccc(F)cc2)c1=O)N1CCN(C(=O)c2ccco2)CC1` are -11% and 1.28.
As to `Cc1cnn(CCCn2ncc(N(C)C)cc2=O)c1`, the “% Inhibition” value is on record as -15% and the Z score is recorded as 2.62.
In the same order, the values of `O=C(Nc1cccc(Cl)c1)N1CCOC[C@H]1c1nc(-c2cccs2)no1` are 11% and -1.46.
For `Cc1nc2ccccn2c1CN(C)Cc1cnc(N(C)C)nc1`, the “% Inhibition” value is given as -5% and the Z score was determined as 0.69.
On to `Cc1ccc(-c2cn[nH]c2[C@H]2CCCN(C(=O)c3ncccc3O)C2)cc1`, for which the “% Inhibition” value is reported as -11% and the Z score is 1.37.
Consider `c1ccc(Nc2ccc(N3CCCC3)nn2)cc1`, for which the “% Inhibition” value came to 0% and the Z score is recorded as -0.05.
Consider `CCCc1nc(N2CCN(CC(C)C)CC2)no1`, for which the “% Inhibition” value is -17% and the Z score turned out to be 3.6.
In the case of `CC1CN(C(=O)c2ccccc2OC2CC2)CC(C)S1(=O)=O` (stereo not given), the “% Inhibition” value is -3% and the Z score worked out at 0.49.
In the same order, the values of `Cc1noc2ncnc(N(C)Cc3cccc(OC(C)C)c3)c12` are -9% and 1.26.
With `CCN1C[C@@H](C(=O)O)C[C@@H](C(=O)Nc2ccc(F)cc2)C1`, the “% Inhibition” value is reported as -2% and the Z score was determined as 0.19.
`Cc1cccc(CN2CCC[C@H](CNC(=O)c3cccc(C(F)(F)F)c3)C2)n1`: the “% Inhibition” value is on record as -5% and the Z score was found to be 0.91.
In the same order, the values of `Cn1ccnc1CN[C@@](C)(CO)C1CCCCC1` are -16% and 2.94.
Consider `O=C(NC1CCN(c2ccccc2C(=O)N2CCOCC2)CC1)c1cc(F)cc(F)c1`, for which the “% Inhibition” value was -15% and the Z score came out at 1.44.
With `Cc1nn(-c2cnc(N)cn2)c(C)c1Cc1ccccc1`, the “% Inhibition” value is listed as -7% and the Z score is reported as 0.91.
For the compound `CC(C)Cc1cc(CN2CCC[C@@](CO)(CCc3ccccc3)C2)n[nH]1`, the “% Inhibition” value is recorded as 0% and the Z score is recorded as -0.05.
Turning to `CN1N=C(C(=O)Nc2ccc(NCc3ccccc3)c(Cl)c2)CCC1=O`, the “% Inhibition” value is recorded as -11% and the Z score is 1.99.
On the same counts, the results for `O=C(c1cc(-c2ccccc2)on1)N1CCn2nc(C3CC3)cc2C1` are 11% and -1.36.
Regarding `O=C(CCc1cc2n(n1)CCN(Cc1cc3ccccc3o1)C2)NCCO`, the “% Inhibition” value is recorded as -6% and the Z score came out at 1.17.
In the case of `COC(=O)[C@@H](c1ccccc1)N1CCC2(CC1)CC(=O)N(CC(C)C)C2`, the “% Inhibition” value is -9% and the Z score amounted to 1.31.
On the same counts, the results for `O=C(NC1CCC2OCCOC2C1)c1cccnc1` (stereo not given) are -6% and 1.05.
Take `COc1ccc(Oc2nonc2N)cc1`: the “% Inhibition” value is 6% and the Z score is reported as -0.78.
On the same counts, the results for `C[C@H]1CN(CC(=O)N(C)CC2CC2)CCS1(=O)=O` are -4% and 0.74.
Turning to `CC(C)c1cnc(NC(=O)NC2(C)CCCC2)s1`, the “% Inhibition” value is -17% and the Z score is 1.85.
For the compound `CC(=O)N1CCN(CCNC2=NS(=O)(=O)c3ccccc32)CC1`, the “% Inhibition” value turned out to be 38% and the Z score is -3.85.
In the same order, the values of `CCC(C)C(C)(O)CNS(=O)(=O)c1cnn(C)c1` (stereo not given) are -5% and 0.72.
Turning to `CCCCn1c(N)c(N2CCOCC2)c(=O)n(CC(=O)Nc2ccc3c(c2)OCCCO3)c1=O`, the “% Inhibition” value is recorded as 7% and the Z score is -0.77.
For the compound `O=C(OCc1cccc(Cl)c1)c1cccc(-n2cnnn2)c1`, the “% Inhibition” value is -50% and the Z score came to 5.82.
For `C[C@H](NC(=O)Cn1ccccc1=O)c1nnc2n1CCCCC2`, the “% Inhibition” value is -3% and the Z score stood at 0.32.
Regarding `CCC1CCC(CNC(=O)N(C)C[C@H]2CCN(C)C2)CC1` (stereo not given in full), the “% Inhibition” value is given as -12% and the Z score came to 1.83.
For `COc1ccc(Cn2cc([C@H](CC(=O)N3CCCC3)c3ccc(F)cc3)c3ccccc32)cc1`, the “% Inhibition” value was -8% and the Z score is 1.05.
In the same order, the values of `Cc1nc(CCNC(=O)NC2CCCC2)cs1` are 5% and -0.43.
`Cc1ccc(C2=NC3(CCC(C(C)(C)C)CC3)NC2=O)cc1` (stereo not given): the “% Inhibition” value is reported as -13% and the Z score turned out to be 1.48.
For `O=C(NCC1CC1)c1nn(-c2cccc(Cl)c2)c(=O)n(Cc2ccccc2F)c1=O`, the “% Inhibition” value is on record as -16% and the Z score amounted to 2.47.
Consider `CCC1([C@@](O)(C#CCN2CCCCCC2)c2ccccc2)CCCC1`, for which the “% Inhibition” value is -16% and the Z score was 1.41.
Regarding `O=c1[nH]c2cccc(N3CCN(C[C@H]4COCCO4)CC3)c2[nH]1`, the “% Inhibition” value turned out to be 7% and the Z score is reported as -0.73.
On to `N#Cc1ccc(O)c(NC(=O)c2cccc(-n3cccn3)n2)c1`, for which the “% Inhibition” value is listed as -4% and the Z score is 0.57.
On to `CCCCc1nc(N2CCCN(C(=O)NCc3ccccc3)CC2)c2c(-c3ccccc3)noc2n1`, for which the “% Inhibition” value came to 7% and the Z score was -0.71.
For `C#Cc1cccc(N(Cc2cccs2)Cc2ncnn2C)c1`, the “% Inhibition” value is reported as 5% and the Z score is listed as -1.01.
On the same counts, the results for `OCCOc1cccc(CN2CCO[C@H]3CCCC[C@@H]32)c1` are -3% and 0.43.
On the same counts, the results for `COc1ccncc1CNC(=O)N1CCC[C@H](C2CCCC2)C1` are 1% and -0.06.
Turning to `COc1ccc([C@H]2N(c3ccc(OC)cc3)C(=O)[C@@H]3CCCN32)cc1`, the “% Inhibition” value was -7% and the Z score is given as 0.98.
In the case of `O=C(CN1CCOCC1)N1CCCC[C@@H]1CCc1ccccc1`, the “% Inhibition” value is reported as -9% and the Z score was 1.71.
On to `CC(C)(CNCC1(CO)CC1)c1ccccc1`, for which the “% Inhibition” value came out at 1% and the Z score is recorded as -0.08.
For `O=C(c1cn(C[C@H]2CCCO2)nn1)N1CCCCCCC1`, the “% Inhibition” value is -11% and the Z score is on record as 1.01.
Consider `CC(C)CC(C)S(=O)(=O)NC(=O)C1Cc2ccccc21` (stereo not given), for which the “% Inhibition” value was -7% and the Z score worked out at 0.55.
On the same counts, the results for `Cc1ccc(N[C@@](C)(C(=O)NCCc2ccccn2)c2ccccc2)cc1` are -3% and 0.57.
Take `Cc1cc(=O)[nH]c(NCCNc2cc(C)nc3ccnn23)n1`: the “% Inhibition” value came out at 2% and the Z score is recorded as -0.44.
On the same counts, the results for `COCCn1ccc2c(NC(=O)CC[C@@H](C)[C@H]3CC[C@H]4[C@@H]5[C@H](O)C[C@@H]6C[C@H](O)CC[C@]6(C)[C@H]5C[C@H](O)[C@]34C)cccc21` are 4% and -0.48.
`O=C(Nc1cccc(C(F)(F)F)c1F)N[C@H]1COC[C@@H]1N1CCOCC1`: the “% Inhibition” value is on record as -6% and the Z score stood at 1.2.
On the same counts, the results for `Cc1ccc2cc(CN3CCC(OC4CCOCC4)CC3)ccc2n1` are -11% and 1.28.
In the case of `CC(=O)NCCCS(=O)(=O)[C@@H](C)c1ccc(Cl)c(Cl)c1`, the “% Inhibition” value is recorded as -4% and the Z score is 0.56.
For the compound `O=C(CCc1ccsc1)NS(=O)(=O)C1CCCC1`, the “% Inhibition” value was -3% and the Z score was 0.28.
Consider `Cc1c[nH]c(C(=O)NCCc2nc(C3CC3)no2)n1`, for which the “% Inhibition” value is 0% and the Z score came to 0.01.
On the same counts, the results for `O=C(CCC(F)(F)F)Nc1nc(-c2ccncc2)ns1` are -20% and 1.77.
With `O=C(N[C@H]1CCOC2(CCCCC2)C1)c1cc(C(F)(F)F)no1`, the “% Inhibition” value worked out at 12% and the Z score is reported as -1.35.

The term % Inhibition denotes the relative decrease from the control value, in per cent.
